These results are taken from paper PMC12089419.

By UniProt entry, the sequences of proteins in these tests, tags left out.
UniProt Q92830: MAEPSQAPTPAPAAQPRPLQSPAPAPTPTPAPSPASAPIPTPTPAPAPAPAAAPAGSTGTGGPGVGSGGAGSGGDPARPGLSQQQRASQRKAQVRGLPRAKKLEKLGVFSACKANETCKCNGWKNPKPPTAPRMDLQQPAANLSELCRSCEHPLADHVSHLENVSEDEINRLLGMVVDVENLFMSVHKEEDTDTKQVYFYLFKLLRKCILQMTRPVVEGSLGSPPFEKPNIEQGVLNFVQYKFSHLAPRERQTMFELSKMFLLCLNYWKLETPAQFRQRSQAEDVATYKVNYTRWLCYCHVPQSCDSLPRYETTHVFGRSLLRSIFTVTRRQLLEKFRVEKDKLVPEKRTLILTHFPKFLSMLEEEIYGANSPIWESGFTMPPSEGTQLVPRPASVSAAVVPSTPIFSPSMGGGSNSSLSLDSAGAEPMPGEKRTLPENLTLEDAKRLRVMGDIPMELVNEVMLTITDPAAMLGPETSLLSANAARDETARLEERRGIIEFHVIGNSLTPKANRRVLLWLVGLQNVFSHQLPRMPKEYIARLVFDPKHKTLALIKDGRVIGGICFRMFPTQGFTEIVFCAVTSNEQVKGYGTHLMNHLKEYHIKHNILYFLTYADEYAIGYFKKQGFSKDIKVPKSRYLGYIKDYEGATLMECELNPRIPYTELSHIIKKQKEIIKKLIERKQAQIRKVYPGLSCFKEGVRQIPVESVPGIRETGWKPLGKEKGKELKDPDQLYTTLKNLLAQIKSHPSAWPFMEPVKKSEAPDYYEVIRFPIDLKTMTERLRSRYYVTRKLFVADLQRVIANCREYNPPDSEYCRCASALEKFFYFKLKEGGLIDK
UniProt Q92831: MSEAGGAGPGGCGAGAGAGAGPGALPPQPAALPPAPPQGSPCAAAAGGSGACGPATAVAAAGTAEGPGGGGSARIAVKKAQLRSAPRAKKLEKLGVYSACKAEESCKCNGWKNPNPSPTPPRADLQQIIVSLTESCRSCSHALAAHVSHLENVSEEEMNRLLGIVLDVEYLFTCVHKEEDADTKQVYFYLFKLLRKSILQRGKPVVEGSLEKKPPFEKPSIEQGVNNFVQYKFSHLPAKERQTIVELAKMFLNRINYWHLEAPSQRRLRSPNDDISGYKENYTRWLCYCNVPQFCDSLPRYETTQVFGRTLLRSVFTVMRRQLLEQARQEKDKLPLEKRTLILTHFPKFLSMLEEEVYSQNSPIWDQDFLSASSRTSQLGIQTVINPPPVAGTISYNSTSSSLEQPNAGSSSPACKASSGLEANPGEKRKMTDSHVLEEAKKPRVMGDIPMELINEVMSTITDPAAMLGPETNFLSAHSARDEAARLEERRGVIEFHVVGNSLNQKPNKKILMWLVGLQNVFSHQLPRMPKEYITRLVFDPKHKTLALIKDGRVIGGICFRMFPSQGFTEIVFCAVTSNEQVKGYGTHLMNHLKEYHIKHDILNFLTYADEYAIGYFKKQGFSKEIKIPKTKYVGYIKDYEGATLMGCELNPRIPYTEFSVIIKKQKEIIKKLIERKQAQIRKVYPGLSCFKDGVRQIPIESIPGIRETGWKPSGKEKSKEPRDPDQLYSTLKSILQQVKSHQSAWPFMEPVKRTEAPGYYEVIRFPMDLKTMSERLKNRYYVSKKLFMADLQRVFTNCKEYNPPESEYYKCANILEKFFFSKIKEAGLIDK
UniProt Q92993: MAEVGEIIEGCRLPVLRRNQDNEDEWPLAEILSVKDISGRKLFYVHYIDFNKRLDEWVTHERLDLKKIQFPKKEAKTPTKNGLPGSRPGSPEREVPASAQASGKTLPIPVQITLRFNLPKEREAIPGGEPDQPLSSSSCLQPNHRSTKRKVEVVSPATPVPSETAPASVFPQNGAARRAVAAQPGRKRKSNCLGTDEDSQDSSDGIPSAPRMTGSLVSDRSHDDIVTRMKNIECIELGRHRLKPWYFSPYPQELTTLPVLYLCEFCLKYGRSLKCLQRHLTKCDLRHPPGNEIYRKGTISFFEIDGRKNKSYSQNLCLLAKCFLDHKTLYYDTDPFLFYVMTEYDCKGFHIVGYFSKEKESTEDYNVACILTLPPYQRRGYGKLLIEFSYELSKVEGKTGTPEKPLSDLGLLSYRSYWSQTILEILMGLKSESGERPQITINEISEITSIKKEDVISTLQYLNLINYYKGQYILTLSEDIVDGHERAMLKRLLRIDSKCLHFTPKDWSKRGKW
UniProt Q09472: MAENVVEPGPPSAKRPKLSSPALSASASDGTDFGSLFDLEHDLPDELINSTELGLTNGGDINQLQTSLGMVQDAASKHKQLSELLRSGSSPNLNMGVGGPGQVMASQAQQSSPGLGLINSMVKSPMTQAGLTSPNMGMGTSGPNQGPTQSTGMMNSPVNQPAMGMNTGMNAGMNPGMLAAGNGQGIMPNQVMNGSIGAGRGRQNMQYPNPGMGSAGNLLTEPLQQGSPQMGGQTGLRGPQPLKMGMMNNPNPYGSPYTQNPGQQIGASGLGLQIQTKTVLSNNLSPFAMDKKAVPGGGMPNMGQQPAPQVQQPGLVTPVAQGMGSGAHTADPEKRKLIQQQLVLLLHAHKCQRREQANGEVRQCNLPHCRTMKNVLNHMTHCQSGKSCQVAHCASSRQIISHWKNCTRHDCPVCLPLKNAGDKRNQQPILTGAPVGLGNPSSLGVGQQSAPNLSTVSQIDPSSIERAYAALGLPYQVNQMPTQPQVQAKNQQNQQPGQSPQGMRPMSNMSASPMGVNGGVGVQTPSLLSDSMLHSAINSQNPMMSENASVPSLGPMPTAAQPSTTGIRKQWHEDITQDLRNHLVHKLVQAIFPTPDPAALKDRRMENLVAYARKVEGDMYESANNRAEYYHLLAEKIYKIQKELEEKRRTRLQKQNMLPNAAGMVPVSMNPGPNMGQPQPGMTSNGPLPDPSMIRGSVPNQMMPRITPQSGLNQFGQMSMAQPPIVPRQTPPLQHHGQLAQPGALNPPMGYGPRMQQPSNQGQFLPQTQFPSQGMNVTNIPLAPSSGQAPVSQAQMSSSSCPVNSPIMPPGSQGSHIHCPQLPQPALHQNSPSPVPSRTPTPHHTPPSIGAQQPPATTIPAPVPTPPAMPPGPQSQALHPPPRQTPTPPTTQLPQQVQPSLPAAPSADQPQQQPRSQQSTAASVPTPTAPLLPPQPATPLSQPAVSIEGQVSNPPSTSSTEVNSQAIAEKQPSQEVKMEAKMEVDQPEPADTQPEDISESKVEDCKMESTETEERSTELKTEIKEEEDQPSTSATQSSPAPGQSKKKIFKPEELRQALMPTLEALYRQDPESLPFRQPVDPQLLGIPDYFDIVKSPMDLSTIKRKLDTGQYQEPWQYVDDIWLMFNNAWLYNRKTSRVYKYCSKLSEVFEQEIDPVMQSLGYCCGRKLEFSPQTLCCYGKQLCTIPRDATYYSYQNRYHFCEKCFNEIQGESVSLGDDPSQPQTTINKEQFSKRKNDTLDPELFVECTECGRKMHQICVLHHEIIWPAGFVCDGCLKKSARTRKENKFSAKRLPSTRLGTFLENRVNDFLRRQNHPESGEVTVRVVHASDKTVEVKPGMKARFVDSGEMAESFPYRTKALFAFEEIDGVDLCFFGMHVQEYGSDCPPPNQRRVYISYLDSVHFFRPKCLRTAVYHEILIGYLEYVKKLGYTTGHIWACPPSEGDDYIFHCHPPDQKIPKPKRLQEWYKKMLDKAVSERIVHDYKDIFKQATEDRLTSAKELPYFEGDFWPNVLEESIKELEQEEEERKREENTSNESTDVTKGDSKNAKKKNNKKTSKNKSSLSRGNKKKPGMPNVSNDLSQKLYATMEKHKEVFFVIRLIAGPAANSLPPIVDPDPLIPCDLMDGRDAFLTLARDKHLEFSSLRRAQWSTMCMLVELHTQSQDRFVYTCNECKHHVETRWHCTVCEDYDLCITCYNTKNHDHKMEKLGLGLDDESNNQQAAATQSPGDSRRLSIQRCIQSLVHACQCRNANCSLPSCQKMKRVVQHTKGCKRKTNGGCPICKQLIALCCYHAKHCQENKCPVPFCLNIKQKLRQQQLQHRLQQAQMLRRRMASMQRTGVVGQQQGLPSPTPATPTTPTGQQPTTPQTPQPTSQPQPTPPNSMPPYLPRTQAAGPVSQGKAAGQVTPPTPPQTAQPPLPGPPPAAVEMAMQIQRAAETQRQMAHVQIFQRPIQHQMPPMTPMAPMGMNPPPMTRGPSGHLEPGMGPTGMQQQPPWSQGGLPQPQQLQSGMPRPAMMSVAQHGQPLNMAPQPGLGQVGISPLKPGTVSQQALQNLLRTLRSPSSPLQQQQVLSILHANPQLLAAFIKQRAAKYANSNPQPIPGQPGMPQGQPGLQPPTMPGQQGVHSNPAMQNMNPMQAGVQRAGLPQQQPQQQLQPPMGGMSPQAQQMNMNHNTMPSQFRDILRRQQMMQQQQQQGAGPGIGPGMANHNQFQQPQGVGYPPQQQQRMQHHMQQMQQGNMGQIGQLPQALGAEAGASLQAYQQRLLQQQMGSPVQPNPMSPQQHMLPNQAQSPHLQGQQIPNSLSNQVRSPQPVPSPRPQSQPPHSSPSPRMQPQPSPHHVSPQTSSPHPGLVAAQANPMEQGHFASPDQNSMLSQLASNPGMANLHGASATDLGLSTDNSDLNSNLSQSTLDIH
UniProt Q93009: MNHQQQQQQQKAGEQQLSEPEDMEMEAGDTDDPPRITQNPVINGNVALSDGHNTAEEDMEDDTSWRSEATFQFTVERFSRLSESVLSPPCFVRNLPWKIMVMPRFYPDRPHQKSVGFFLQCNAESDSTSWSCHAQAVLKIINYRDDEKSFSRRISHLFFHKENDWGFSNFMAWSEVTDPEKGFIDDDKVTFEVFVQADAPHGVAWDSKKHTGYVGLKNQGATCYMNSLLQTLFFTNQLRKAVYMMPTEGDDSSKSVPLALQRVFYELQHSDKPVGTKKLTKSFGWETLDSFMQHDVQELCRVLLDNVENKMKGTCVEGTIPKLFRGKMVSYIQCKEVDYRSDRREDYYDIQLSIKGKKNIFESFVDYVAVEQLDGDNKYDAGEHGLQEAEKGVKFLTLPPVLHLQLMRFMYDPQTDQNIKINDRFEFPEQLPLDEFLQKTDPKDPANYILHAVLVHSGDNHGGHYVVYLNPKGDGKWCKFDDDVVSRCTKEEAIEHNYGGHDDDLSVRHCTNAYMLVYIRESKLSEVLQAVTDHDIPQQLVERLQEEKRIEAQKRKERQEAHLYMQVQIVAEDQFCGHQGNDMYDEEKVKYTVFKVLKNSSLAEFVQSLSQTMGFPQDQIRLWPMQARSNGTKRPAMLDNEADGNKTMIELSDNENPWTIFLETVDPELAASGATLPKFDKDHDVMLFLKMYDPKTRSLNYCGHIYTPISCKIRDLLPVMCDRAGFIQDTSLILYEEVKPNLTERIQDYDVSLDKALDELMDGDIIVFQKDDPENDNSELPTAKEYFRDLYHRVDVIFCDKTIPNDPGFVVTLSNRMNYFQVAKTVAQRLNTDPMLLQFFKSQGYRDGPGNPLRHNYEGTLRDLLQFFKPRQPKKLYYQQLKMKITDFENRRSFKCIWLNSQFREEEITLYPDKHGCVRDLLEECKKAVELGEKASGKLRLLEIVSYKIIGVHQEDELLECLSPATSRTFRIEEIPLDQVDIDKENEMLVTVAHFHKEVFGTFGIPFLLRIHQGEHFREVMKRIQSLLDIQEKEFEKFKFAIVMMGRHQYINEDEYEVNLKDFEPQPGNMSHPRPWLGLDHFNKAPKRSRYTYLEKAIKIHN

Experiment [1] has as its target T1, endogenous DACH1 (human (endogenous in RKO, HCT8, SW480)) (UniProt Q9UI36).
T1 sequence: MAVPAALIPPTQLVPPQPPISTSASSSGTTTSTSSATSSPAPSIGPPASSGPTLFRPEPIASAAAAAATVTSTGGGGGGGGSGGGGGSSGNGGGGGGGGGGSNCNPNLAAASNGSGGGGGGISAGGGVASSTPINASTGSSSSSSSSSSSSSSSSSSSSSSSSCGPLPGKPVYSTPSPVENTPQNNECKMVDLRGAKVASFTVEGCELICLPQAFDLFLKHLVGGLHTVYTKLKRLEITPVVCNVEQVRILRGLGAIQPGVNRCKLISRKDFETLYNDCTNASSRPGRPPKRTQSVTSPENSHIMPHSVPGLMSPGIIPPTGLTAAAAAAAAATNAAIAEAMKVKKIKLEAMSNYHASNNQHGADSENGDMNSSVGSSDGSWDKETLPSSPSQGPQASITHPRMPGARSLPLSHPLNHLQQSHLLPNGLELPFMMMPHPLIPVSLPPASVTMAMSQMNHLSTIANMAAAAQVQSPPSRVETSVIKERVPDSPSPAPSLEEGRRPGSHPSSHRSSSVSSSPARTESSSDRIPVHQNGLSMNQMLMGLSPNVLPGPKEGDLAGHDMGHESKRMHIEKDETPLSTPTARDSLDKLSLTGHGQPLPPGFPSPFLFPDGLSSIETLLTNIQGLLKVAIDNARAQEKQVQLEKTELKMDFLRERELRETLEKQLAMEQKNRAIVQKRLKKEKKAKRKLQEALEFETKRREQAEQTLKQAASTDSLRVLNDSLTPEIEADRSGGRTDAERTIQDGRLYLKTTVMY
In words: co-IP; endogenous proteins; RKO, HCT8 and SW480 cells immunoprecipitated with anti-DACH1 or anti-UHRF1.

In another experiment the target is Flag-CBP (UniProt Q92793). Put plainly: co-IP; Myc-DACH1 co-expressed with Flag-tagged p300, GCN5, PCAF, CBP or Tip60 in HEK293T cells; IP with anti-Flag antibodies, immunoblot for Myc and Flag. (In western blotting, separated proteins are transferred to a membrane and probed.)
Another experiment concerns the target Flag-GCN5 (UniProt Q92830). Described as above.
In a further experiment the target is Flag-PCAF (UniProt Q92831). The description is as above.
The target of another experiment is Flag-Tip60 (UniProt Q92993). The experiment is described as above.
In the next experiment the target is Flag-p300 (UniProt Q09472). Described as above.
In the next experiment the target is HA-USP7-FL (UniProt Q93009). Put plainly: co-IP; HA-USP7 and Myc-DACH1 (or its K680 mutants) expressed in HEK293T cells (Fig. 6J: HEK293T and SW480 stably expressing HA-USP7); IP with anti-HA or anti-Myc, immunoblot.

Substitutions are numbered along the chain they refer to. Numbers in names are those of the source. No constants are given. Whether binding was seen depends on the method and setting. Binding seen in cells or lysates may run through a third protein. Some binding calls cover weakened binding; strength is not graded here. For some assays here: Sequences can lack the tags named with a protein.

B1: E3 ubiquitin-protein ligase UHRF1 (endogenous) (enzyme, UniProt Q96T88 1-793)
chain: MWIQVRTMDGRQTHTVDSLSRLTKVEELRRKIQELFHVEPGLQRLFYRGKQMEDGHTLFDYEVRLNDTIQLLVRQSLVLPHSTKERDSELSDTDSGCCLGQSESDKSSTHGEAAAETDSRPADEDMWDETELGLYKVNEYVDARDTNMGAWFEAQVVRVTRKAPSRDEPCSSTSRPALEEDVIYHVKYDDYPENGVVQMNSRDVRARARTIIKWQDLEVGQVVMLNYNPDNPKERGFWYDAEISRKRETRTARELYANVVLGDDSLNDCRIIFVDEVFKIERPGEGSPMVDNPMRRKSGPSCKHCKDDVNRLCRVCACHLCGGRQDPDKQLMCDECDMAFHIYCLDPPLSSVPSEDEWYCPECRNDASEVVLAGERLRESKKKAKMASATSSSQRDWGKGMACVGRTKECTIVPSNHYGPIPGIPVGTMWRFRVQVSESGVHRPHVAGIHGRSNDGAYSLVLAGGYEDDVDHGNFFTYTGSGGRDLSGNKRTAEQSCDQKLTNTNRALALNCFAPINDQEGAEAKDWRSGKPVRVVRNVKGGKNSKYAPAEGNRYDGIYKVVKYWPEKGKSGFLVWRYLLRRDDDEPGPWTKEGKDRIKKLGLTMQYPEGYLEALANREREKENSKREEEEQQEGGFASPRTGKGKWKRKSAGGGPSRAGSPRRTSKKTKVEPYSLTAQQSSLIREDKSNAKLWNEVLASLKDRPASGSPFQLFLSKVEETFQCICCQELVFRPITTVCQHNVCKDCLDRSFRAQVFSCPACRYDLGRSYAMQVNQPLQTVLNQLFPGYGNGR
As to B1, the binding entry in experiment [1] is “binds”.

B2: Myc-DACH1-FL (protein, UniProt Q9UI36 1-758)
chain: T1 sequence
As to B2, the binding entry in the experiment with Flag-CBP is reported as “no binding”; with Flag-GCN5, “binds”; with Flag-PCAF it was “no binding”; with Flag-Tip60, “no binding”; in the experiment with Flag-p300 it was “no binding”; with HA-USP7-FL it was “binds”.

B3: Myc-DACH1-K680Q (protein, UniProt Q9UI36 1-758)
chain: T1 sequence with K680Q
For the molecule B3, the binding result with HA-USP7-FL is given as “binds”.
